Reference: the supplement of paper PMC3334620
Over roughly 33,000 sequences, “E-score (-0.5 to 0.5)” has its median near -0.035; the highest 2% begin near 0.35. This is one part of the list.

biological target: T1, Pdr3 (UniProt P33200); assay: PBM E-score (8-mer binding enrichment) (E-score (-0.5 to 0.5)); higher = stronger / more preferred TF binding; most listed sequences are background and not binding sites; details: protein concentration: 200 nM; construct: GST-full length
T1 sequence: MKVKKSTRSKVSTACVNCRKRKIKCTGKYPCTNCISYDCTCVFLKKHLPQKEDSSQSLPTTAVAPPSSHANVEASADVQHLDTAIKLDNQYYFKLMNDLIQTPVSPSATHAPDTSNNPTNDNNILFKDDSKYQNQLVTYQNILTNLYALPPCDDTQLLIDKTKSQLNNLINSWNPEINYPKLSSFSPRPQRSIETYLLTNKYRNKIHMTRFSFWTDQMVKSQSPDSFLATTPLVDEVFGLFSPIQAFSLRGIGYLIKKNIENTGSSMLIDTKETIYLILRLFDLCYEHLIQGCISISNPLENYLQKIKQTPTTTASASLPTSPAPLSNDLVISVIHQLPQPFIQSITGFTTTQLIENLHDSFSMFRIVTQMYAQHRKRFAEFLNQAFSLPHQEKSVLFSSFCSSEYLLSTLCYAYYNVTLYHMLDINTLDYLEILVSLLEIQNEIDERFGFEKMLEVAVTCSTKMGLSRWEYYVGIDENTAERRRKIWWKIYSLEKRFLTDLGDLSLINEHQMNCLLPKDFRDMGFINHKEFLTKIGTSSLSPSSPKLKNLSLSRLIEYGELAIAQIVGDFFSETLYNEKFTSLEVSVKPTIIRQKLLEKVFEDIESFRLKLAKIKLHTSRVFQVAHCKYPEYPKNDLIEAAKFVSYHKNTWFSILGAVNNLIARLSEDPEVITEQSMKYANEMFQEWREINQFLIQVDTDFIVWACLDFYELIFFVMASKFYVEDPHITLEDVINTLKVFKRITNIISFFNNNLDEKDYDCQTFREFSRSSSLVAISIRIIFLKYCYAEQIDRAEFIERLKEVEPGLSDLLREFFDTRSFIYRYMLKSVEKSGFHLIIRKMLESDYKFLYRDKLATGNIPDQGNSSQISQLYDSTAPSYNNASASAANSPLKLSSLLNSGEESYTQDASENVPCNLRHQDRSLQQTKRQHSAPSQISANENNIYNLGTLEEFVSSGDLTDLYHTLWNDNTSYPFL
Summary of the method: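 Yeast transcription factors, full-length or as DNA-binding domains, were expressed with a GST tag using PURExpress in vitro transcription/translation. At about 100-200 nM they were applied to universal all-10-mer Agilent arrays, double-stranded by primer extension on fresh or once-stripped slides. Fluorescent anti-GST detected bound protein, and masliner normalised the scans. E-scores for ungapped eight-base words, pooled with reverse complements, came from the Universal PBM Analysis Suite.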

| Sequence | PBM E-score |
| --- | --- |
| CTTAGCCC | -0.0563 |
| AGCATCGG | 0.105 |
| GGTTTCCA | -0.104 |
| CGTTAGCA | -0.0649 |
| CGTTCGTA | 0.166 |
| ACGTACCG | 0.0979 |
| GAATGATC | 0.0751 |
| AGGTACCT | -0.213 |
| CCTGAATC | -0.0536 |
| TATGGAGA | -0.197 |
| GCTAAGAA | -0.0745 |
| ACCATACA | -0.166 |
| CGTAAGAG | -0.164 |
| GTTGTTAA | 0.00071 |
| CTTAGCAC | 0.0559 |
| GCTATAAA | -0.0687 |
| TCGGCCAA | 0.12 |
| CGAATGGC | 0.14 |
| CAGGGACG | -0.0975 |
| CAGCCCAA | -0.0793 |
| GGCCACGA | 0.0306 |
| CCCACTGC | 0.0614 |
| TAGCTCCA | -0.149 |
| CGAACCGA | 0.15 |
| AGTGGCGG | 0.11 |

| Sequence | PBM E-score |
| --- | --- |
| TCGTGCCA | -0.066 |
| GTAACGAC | -0.0257 |
| TACCAAAA | -0.166 |
| CATTCTTC | 0.0866 |
| CACTAGCA | -0.276 |
| AGATACGA | 0.0424 |
| ATGGGCTG | -0.118 |
| AATCACCA | 0.0775 |
| ACAGGCCC | -0.19 |
| AACTAAAT | -0.111 |
| CCACTTTC | -0.127 |
| CGGGATCC | 0.417 |
| CCGTGAAA | 0.223 |
| CTTTACTA | 0.177 |
| AACTTGCA | -0.0273 |
| GCCCCTGA | -0.0645 |
| ACGGTTTG | 0.05 |
| GTGAGCCA | -0.229 |
| ATAAATAA | 0.151 |
| CAATGGAA | 0.173 |
| CCTCTTCA | -0.271 |
| ATAAGTAA | -0.0984 |
| CTCTTAGA | -0.104 |
| TCGTCACA | -0.00184 |
| AGAAAAAC | -0.0952 |

| Sequence | PBM E-score |
| --- | --- |
| CCGGTCCC | 0.312 |
| ATTACGAG | 0.0348 |
| AATTAGCC | -0.031 |
| AGATTATG | 0.0343 |
| AGCGTGGG | -0.253 |
| ACATCATA | 0.015 |
| CCATCCCC | 0.123 |
| CACATGCG | -0.016 |
| ACATACCG | 0.0282 |
| AGCATCAT | -0.0546 |
| TACGATAA | -0.16 |
| CAAATTTC | -0.136 |
| AACTCGCT | 0.0814 |
| AGCTCGCA | -0.0591 |
| GACCACTC | 0.0932 |
| GTACCTCA | -0.112 |
| CTAGGCAC | -0.221 |
| AAAGGAAG | -0.0796 |
| GCCTGATA | -0.199 |
| CTCGCGAA | -0.0599 |
| TACTCAGA | -0.0418 |
| ATTAGAGC | -0.0155 |
| ACATCGAT | 0.0403 |
| ACTAAGGA | -0.0238 |
| CTGACTGC | -0.186 |

| Sequence | PBM E-score |
| --- | --- |
| GTGGAGGA | 0.016 |
| GACACGCC | 0.0793 |
| AGCTGGTA | -0.0594 |
| CTCAGTCA | -0.218 |
| GGAAATTA | 0.219 |
| GAGAGCCC | -0.223 |
| ACAGTCTG | -0.131 |
| GAGCCAGA | 0.002 |
| TCGCCCGA | 0.0174 |
| CGGATAGC | 0.251 |
| CCGTCAAA | 0.0872 |
| GATTTGAA | -0.03 |
| CTAAGACA | -0.125 |
| GACAAATC | -0.0649 |
| GAAAAAAA | 0.168 |
| CCGGTTTC | 0.235 |
| AGGCCCTG | -0.124 |
| TCTGCTCA | -0.282 |
| CAAAAGGG | -0.144 |
| GAAAAGAC | 0.123 |
| CGCCTTAC | -0.22 |
| ATAGATAC | -0.0777 |
| GTACACGA | -0.0206 |
| CCGTATGA | 0.23 |
| TTACTGAA | -0.0355 |

| Sequence | PBM E-score |
| --- | --- |
| AGCAGTCC | 0.0198 |
| CGCGCTGA | 0.104 |
| GACATTCA | 0.0508 |
| GGAAGTAA | 0.234 |
| CGCTGGAA | 0.171 |
| GGTAATTA | 0.115 |
| GACATGAC | -0.217 |
| CCGAATTC | 0.315 |
| AAGCTCTA | -0.243 |
| ATCACGGG | 0.0804 |
| CGACGGCA | 0.138 |
| GAAATGCA | 0.0293 |
| GCGCTGCC | -0.0982 |
| CAATCGAG | -0.129 |
| ACCATGTC | -0.0507 |
| CGGTTTTA | 0.162 |
| CATTCCCC | 0.213 |
| GCGTGACA | -0.029 |
| CTGCTATA | 0.138 |
| CCTAAGCA | -0.174 |
| CACTGTAC | -0.34 |
| CATAATGC | -0.0347 |
| ACGTTGCT | -0.086 |
| GGCAGGAC | 0.0548 |
| GCCTCCCA | -0.199 |

| Sequence | PBM E-score |
| --- | --- |
| GAACGACA | -0.144 |
| CACTACGA | -0.152 |
| GAAGCTGA | 0.143 |
| GGATTAGA | 0.0234 |
| AGATAACG | 0.251 |
| GATTTACA | 0.0545 |
| AGTTTTTG | -0.0169 |
| GCACCGAC | 0.104 |
| AAAAGTGC | -0.0754 |
| GAATCATA | 0.0241 |
| CATCACTA | -0.11 |
| GTCATAAC | -0.105 |
| CCACCGGG | 0.257 |
| CATTTAAA | 0.227 |
| CCGGTTTA | 0.179 |
| AGGCCAGA | 0.03 |
| ATTACTTA | 0.119 |
| CTTATTTC | 0.0132 |
| CGTTACCA | -0.149 |
| CCGTACCA | 0.218 |
| AACCCGCG | 0.431 |
| CGGTGACA | 0.189 |
| AACATGTG | -0.00722 |
| CATAGCAC | -0.0394 |
| CCCCGACG | 0.29 |

| Sequence | PBM E-score |
| --- | --- |
| CTAAACAG | -0.168 |
| CTAGACGC | -0.112 |
| CTAAAGAG | -0.217 |
| GGGGTCTA | 0.113 |
| GTATCCCA | -0.125 |
| CACTACTA | -0.00853 |
| AAAGGCAA | -0.0369 |
| ATTCGCAA | 0.0328 |
| CACCCATG | -0.0494 |
| ACAGAAAA | 0.0337 |
| AGATCATA | 0.0299 |
| CCGCAAGA | 0.198 |
| AATATAGA | -0.142 |
| AAACTCCT | -0.184 |
| GCATAGCA | -0.116 |
| AGGTGCAC | 0.0686 |
| AAGTTTAT | 0.146 |
| GACCTTGC | -0.0483 |
| GTTACAGA | -0.12 |
| ATCTCTCG | 0.108 |
| CCCACGCC | -0.256 |
| ATACGAAT | -0.186 |
| TCGATTCA | -0.103 |
| CCTCATCA | -0.0597 |
| GTAAAGAA | -0.0704 |

| Sequence | PBM E-score |
| --- | --- |
| CGAATGAC | 0.212 |
| CGTAGCTC | -0.0575 |
| AAGAAGGC | -0.163 |
| CATTTAAG | -0.195 |
| GGGAATTA | 0.118 |
| GACGCCTC | -0.0418 |
| CACTCTAA | -0.0846 |
| ACCGTTAC | -0.0675 |
| GCAGTTAC | 0.0186 |
| CATTATAG | 0.0527 |
| GGCAGGGA | -0.0639 |
| ACGCGACC | -0.0942 |
| CAATCGCG | 0.0713 |
| CGTCGAGC | -5e-05 |
| TAACCCAA | -0.112 |
| TCATGGCA | -0.102 |
| CCCAATTC | 0.0979 |
| AGTAAGGA | -0.0722 |
| ATGACTTC | -0.041 |
| CGCAAGCC | 0.128 |
| ACTTTCCT | -0.151 |
| GACGGCAA | 0.17 |
| GTGACTTA | -0.223 |
| ACGCCTGA | -0.148 |
| CATTTGGC | -0.0213 |

| Sequence | PBM E-score |
| --- | --- |
| AAGGTAAG | -0.114 |
| TATGCGCA | 0.0456 |
| GGCAAAGA | 0.0107 |
| ACACGTCG | -0.115 |
| GAGTGGCC | 0.0648 |
| AATGGTTC | 0.00276 |
| AGTGCGTG | -0.041 |
| GACCGAAC | 0.111 |
| ATGAGACA | 0.0105 |
| GCATCGCC | 0.112 |
| AGTAGTAC | 0.0868 |
| CAATAAGC | 0.0303 |
| ATATGAGC | -0.00823 |
| GGCATACC | -0.0447 |
| AAGGTTAT | -0.0398 |
| AACCGAGT | -0.0335 |
| CAAAGCTG | 0.0146 |
| CCTGCGTA | -0.12 |
| AACTGTTA | -0.178 |
